What all share (experiment): Primary Screen for Target Class Profiling of Small Molecule Inhibitors of Methyltransferases
The target in assay [1] is Glycine N-methyltransferase (Homo sapiens) (UniProt Q14749). To be noted: purified enzyme, MTase-Glo SAH luminescence; measured here: GNMT inhibition; at 40 µM; stronger effect = lower value. The procedure, abridged:
(§1)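 Each enzyme was reacted with SAM and its substrate, with compounds tested once at 40 uM; SAH formed was read by MTase-Glo luminescence.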

In assay [2] the target is Guanidinoacetate N-methyltransferase (Homo sapiens) (UniProt Q14353). To be noted: purified enzyme, MTase-Glo SAH luminescence; measured here: GAMT inhibition; at 40 µM; stronger effect = lower value. The procedure, abridged: as §1
The target in assay [3] is Histamine N-methyltransferase (Homo sapiens) (UniProt P50135). The note with it: purified enzyme, MTase-Glo SAH luminescence; measured here: HNMT inhibition; at 40 µM; stronger effect = lower value. Summed up:
as §1

Assay [4] deals with Nicotinamide N-methyltransferase (Homo sapiens) (UniProt P40261). To be noted: purified enzyme, MTase-Glo SAH luminescence; measured here: NNMT inhibition; at 40 µM; stronger effect = lower value. Summed up:
as §1

Assay [5] concerns the target Phenylethanolamine N-methyltransferase (Homo sapiens) (UniProt P11086). The note with it: purified enzyme, MTase-Glo SAH luminescence; measured here: PNMT inhibition; at 40 µM; stronger effect = lower value. The procedure, abridged: as §1

The list shows a part of the results. These are further read-outs of the screen, such as a control signal, another cell line or another target. No call is given for them.

Results on 15 compounds are retold here after PubChem BioAssay AID1745853 (National Center for Advancing Translational Sciences (NCATS), 2022).
On the % scale 0 is the no-effect control and ±100 the full control effect.

Take `CCc1ccc(CNC(=O)CCn2ccc3cc(S(=O)(=O)N4CCCC4)ccc32)cc1`: the activity change, negative = inhibition in assay [1] was -5.73%; in assay [2], 0%; in assay [3], 1.39%; in assay [4], -3.48%; in assay [5], 1.19%.
On the same counts, the results for `COC(=O)N1CCCN(c2nccc(Nc3ccc(C)cc3)n2)C1` are -20.9%, -6.25%, -8.21%, -21.8% and -24.4%.
As to `CC(C)=CCC[C@](C)(O)[C@H]1CC[C@]2(C)[C@@H]1[C@H](O)CC1[C@@]3(C)CC[C@H](O)C(C)(C)[C@@H]3[C@@H](O[C@@H]3O[C@H](CO)[C@@H](O)[C@H](O)[C@H]3O[C@@H]3O[C@H](CO)[C@@H](O)[C@H](O)[C@H]3O)C[C@]12C` (stereo not given in full), the activity change, negative = inhibition is 2.09% in assay [1]; -2.87% in assay [2]; 9.96% in assay [3]; -14.8% in assay [4]; 7.95% in assay [5].
For the compound `COC(=O)C1=COC(OC2OC(CO)C(O)C(O)C2O)C2C(COC(=O)/C=C/c3ccc(O)c(O)c3)C(O)C(O)C12` (stereo not given), the activity change, negative = inhibition in assay [1] is -0.368%; in assay [2], 4.28%; in assay [3], 5.56%; in assay [4], -9.37%; in assay [5] it was 3.9%.
The like results for `COc1ccc(-c2cc3n(n2)CC(C)(C(=O)NCc2ccccc2)N(c2ccccc2C)C3=O)cc1` (stereo not given) were, in that order, 3.3%, 0%, 5.04%, 6.16% and -2.02%.
On the same counts, the results for `c1ccc(-c2noc(-c3cncnc3NC3CCCCC3)n2)cc1` are 0.645%, -0.776%, 1.97%, -2.06% and 0.765%.
The like results for `c1ccc(N2CCC(Cn3ccnc3-c3cc4n(n3)CCCNC4)C2)cc1` (stereo not given) were, in that order, -25.5%, -15.6%, -46.1%, -23.6% and -23.5%.
In the case of `O=C(COc1ccccc1)NCCn1cccc1-c1nc(-c2ccc3c(c2)OCO3)no1`, the activity change, negative = inhibition in assay [1] is -4.91%; in assay [2], -6.16%; in assay [3], -4.7%; in assay [4], -12%; in assay [5] it was -3.77%.
Consider `O=C(NC1CCN(c2cc(-c3ccc(Cl)cc3)[nH]n2)C1)c1c[nH]c2ccccc12` (stereo not given), for which the activity change, negative = inhibition in assay [1] was -24.8%; in assay [2], -12.1%; in assay [3], -8.51%; in assay [4] it was -16%; in assay [5], -10.9%.
For `C=C1[C@H]2CCC3[C@]4(C)CCC[C@@](C)(C(=O)O)C4CC[C@]3(C2)[C@H]1OC(C)=O` (stereo not given in full), the activity change, negative = inhibition is 0.033% in assay [1]; 2.63% in assay [2]; 2.06% in assay [3]; -16.2% in assay [4]; -2.15% in assay [5].
The like results for `CC(C)(CC(=O)O)CC(=O)N1Cc2[nH]cnc2C[C@H]1C(=O)NC1CCCCC1` were, in that order, -3.18%, -2.48%, -0.208%, -4.62% and -3.24%.
Take `O=C1c2ccc(Nc3ccc(F)cc3F)cc2CCc2ccc(OCC(O)CO)cc21` (stereo not given): the activity change, negative = inhibition was -20.8% in assay [1]; -0.034% in assay [2]; -4.85% in assay [3]; -12% in assay [4]; 0.334% in assay [5].
On the same counts, the results for `COc1cc(F)c(-c2nccn2CC(O)c2ccccc2)cc1OC` (stereo not given) are -1.67%, -1.46%, -22.5%, -10.2% and -4.37%.
The like results for `COc1ccc(OC)c(CNC(=O)c2cc3n(n2)CC(C)(C(=O)NC2CCCCCC2)N(C)C3=O)c1` (stereo not given) were, in that order, -2.9%, 4.18%, 1.17%, -0.997% and 1.56%.
As to `CC1CCN(S(=O)(=O)c2ccc3c(ccn3CCC(=O)NC3CCCC(C)C3C)c2)CC1` (stereo not given), the activity change, negative = inhibition in assay [1] is -3.84%; in assay [2], 1.04%; in assay [3], -7.22%; in assay [4], -11.3%; in assay [5], -5.77%.
